Experimental data published in PubChem BioAssay AID900 (National Center for Advancing Translational Sciences (NCATS), 2007).
About 20 (0.03%) of roughly 75,000 compounds were called active. About 1% were inconclusive and are not listed. The call rests on the fitted dose curve; in most records, active means well fitted inhibition curve with a large enough effect; inconclusive means small, poorly fitted or top-dose-only effect; inactive means flat fitted curve, though single readings scatter. The entries are a selection whose mix differs from that of the whole data set.

Biological target: Caspase-1 (Homo sapiens) (UniProt P29466)
Assay: qHTS Assay for Allosteric/Competitive Inhibitors of Caspase-1
Conditions: Caspase-1 enzyme, Ac-WEHD-AFC fluorogenic rate; series mostly up to 57.5 µM; activity change, negative = inhibition: at the top concentration
Source text: NIH Molecular Libraries Screening Centers Network [MLSCN]
NIH Chemical Genomics Center [NCGC]
PI Name: Dr. James Wells,
Dr. Enrique Perez-Paya, Dr.Janice Williams, Dr. Dennis Wolan, a person
The caspases (Cysteine Aspartyl Protease) comprise a related family of 14 dimeric proteases that are critical mediators of apoptosis (programmed cell death) and inflammation. The caspases represent an important class of drug targets for stroke, ischemia, cancer and inflammatory diseases. […] One goal of this project was to identify compounds that act as allosteric inhibitors via stabilizing the procaspase form of the enzyme. Previous work in Well's laboratory has shown that such allosteric inhibitors can be identified and these act by binding at the dimer interface of enzyme (Hardy, Lam et al., 2004).
The biochemical assay was configured using purified caspase 1 at a high enzyme concentration to promote formation of the homodimers and thus facilitate the identification of allosteric inhibitors. The overall goal was to identify reversible inhibitors with better drug-like properties than the currently available set of aspartyl-containing peptidomimetics that covalently bind the active site. Caspase 1 was assayed using the profluorescent substrate Ac-WEHD-AFC. After initiation of the assay with substrate the plates were rapidly read using an automated robotic system (Kalypsys, Inc.) to maintain consistent timing. A kinetic mode of detection was used where the initial rate was collected (estimated final product formation was ~10%). Compounds were screened as a concentration-titration series that ranged from 57 uM to 0.7 nM. Below is the protocol used for caspase 1.
NCGC Assay Protocol Summary:
Caspase 1 was prepared in buffer (50 mM HEPES pH 7.5, 50 mM KCl, 200 mM NaCl, 10 mM DTT, 0.1% CHAPS) at a concentration of 66.6 nM and 3 uL was dispensed to all wells using black solid Kalypsys 1536-well plates. 20 nL of DMSO containing compounds was added using a pin-tool (Kalypsys Inc.) to columns 5-48. Then 20 nL of DMSO solution from a control plate was added to columns 1-4. Controls were: Column 1, 16 point titration with each concentration in duplicate (1:1 dilutions in DMSO; final starting concentration was 57 uM) of the caspase 1 inhibitor Ac-WEHD-CHO (Alexis Biochemicals); Column 2, a 16 point titration with each concentration in duplicate of the free AFC fluorophore prepared in DMSO (Alexis Biochemicals), final starting was 40 uM; Column 3 neutral (DMSO only) control; Column 4: DMSO alone, to serve as a negative control (no substrate was added). Then 1 uL of 20 uM the substrate Ac-WEHD-AFC (Alexis Biochemicals) prepared in the same buffer was dispensed to all wells except columns 2 and 4 and the plates were immediately transferred (< 1 min) to the Viewlux. The plates were then exposed using 405 nm excitation/520 nm emission filters for 4 sec and read at 20 sec intervals for 3 min. Final enzyme concentration was 50 nM and the final substrate concentration was 5 uM.
Concentration-response curves were fitted to the data calculated from slope of the linear regression of fluorescent intensity versus time (the rate). The concentration-effect curves were then classified based on curve quality (r2), response magnitude and degree of measured activity. […] Inconclusive compounds had appreciable concentration-dependent effects on both the measured rate and the interpolated basal fluorescence intensity at the start of the reaction but where the basal fluorescent intensity was marginal (e.g. < 10-fold). Inconclusive compounds also encompass highly fluorescent compounds (>100-fold increases in fluorescent intensities values relative to controls) where artificial concentration-dependent decreases in the rate occurred at high compound concentrations due to fluorescent interferences.
Keywords: Caspase 1, proteases, profluorescent, MLSMR, MLSCN, NIH Roadmap, qHTS, NCGC
Potency means the concentration at half of the fitted maximal effect.

Potency, inactive:
Cc1ccc(C(=O)Nc2ccc(S(=O)(=O)O)c3cc(S(=O)(=O)O)cc(S(=O)(=O)O)c23)cc1NC(=O)c1cccc(NC(=O)Nc2cccc(C(=O)Nc3cc(C(=O)Nc4ccc(S(=O)(=O)O)c5cc(S(=O)(=O)O)cc(S(=O)(=O)O)c45)ccc3C)c2)c1

Potency, active:
COc1ccc2c(c1)Cc1sc(NC(=O)c3cccs3)nc1-2 31.6 µM, COc1cc(N[C@@H](C)CCCN)c2ncccc2c1 2.51 µM, CC(=O)[C@@H]1[C@@H]2C(=O)N(c3ccc(F)c(Cl)c3)C(=O)[C@@H]2C2c3ccccc3C=CN21 (stereo not given in full) 31.6 µM, O=C1C(SCCO)=C(SCCO)C(=O)c2ccccc21 15.8 µM, O=C1Cc2ccccc2C(=O)N1CCc1ccccc1 5.01 µM

Activity change, negative = inhibition, inactive:
COCCNC(=O)[C@H](C)[C@@H]1C[C@@]1(C)[C@@H](NC(=O)OCc1ccccc1)c1ccccc1 0.901%, CCCc1ncc(C[n+]2ccccc2C)c(N)n1 -2.63% [at 25.7 µM], CN(Cc1cnc2nc(N)nc(N)c2n1)c1ccc(C(=O)N[C@H](CCC(=O)O)C(=O)O)cc1 -8.75% [at 25.7 µM], COC(=O)[C@@H]1[C@@H]2C[C@H]3c4[nH]c5cc(OC)ccc5c4CCN3C[C@@H]2C[C@H](OC(=O)c2cc(OC)c(OC)c(OC)c2)[C@H]1OC -16.6% [at 25.7 µM], CO[C@H]1COC(=O)C/C=C\[C@@H](C)[C@H](OC)COC(=O)CCC[C@@H]1C 0.279% [at 11.5 µM], CO[C@H]1COC(=O)CCC[C@H](C)[C@@H](OC)COC(=O)C/C=C\[C@@H]1C -3.97% [at 11.5 µM], CCn1cc(C(=O)O)c(=O)c2cnc(N3CCCC3)nc21 -2.09% [at 25.7 µM], C[C@@H]1[C@H](O)[C@@H](C)/C=C/C=C/C=C/C=C/C=C/C=C/C=C/[C@H](O[C@@H]2O[C@H](C)[C@@H](O)[C@H](N)[C@@H]2O)C[C@@H]2O[C@](O)(C[C@@H](O)C[C@@H](O)[C@H](O)CC[C@@H](O)C[C@@H](O)CC(=O)O[C@H]1C)C[C@H](O)[C@H]2C(=O)O -11.3%, COC(=O)C1C2CC3c4[nH]c5cc(OC)ccc5c4CCN3CC2CC(OC(=O)c2cc(OC)c(OC)c(OC)c2)C1OC (stereo not given) -17.4%, O=C(O)[C@@H]1[C@@H]2C[C@H]3c4[nH]c5ccccc5c4CCN3C[C@@H]2CC[C@@H]1O -15% [at 25.7 µM], Cc1nc(N=Nc2ccc(S(=O)(=O)O)cc2S(=O)(=O)O)c(COP(=O)(O)O)c(C=O)c1O 2.43%, C[C@H]1[C@@H](O)[C@@H](C)\C=C/C=C\C=C/C=C\C=C/C=C\C=C/[C@@H](O[C@H]2O[C@@H](C)[C@@H](O)[C@@H](N)[C@@H]2O)C[C@@H]2O[C@](O)(C[C@@H](O)C[C@@H](O)[C@@H](O)CC[C@@H](O)C[C@@H](O)CC(=O)O[C@H]1C)C[C@@H](O)[C@H]2C(=O)O (stereo in doubt) -2.8% [at 25.7 µM], CN(Cc1cnc2nc(N)nc(N)c2n1)c1ccc(C(=O)NC(CCC(=O)O)C(=O)O)cc1 (stereo not given) -9.22%, C[C@H]1[C@H](O)[C@@H](C)C=CC=CC=CC=CC=CC=CC=C[C@H](O[C@@H]2O[C@@H](C)[C@H](O)[C@@H](N)[C@@H]2O)C[C@@H]2O[C@](O)(C[C@@H](O)C[C@@H](O)[C@@H](O)CC[C@@H](O)C[C@@H](O)CC(=O)O[C@H]1C)C[C@H](O)[C@H]2C(=O)O 2.64% [at 11.5 µM]
